Assay results from publication PMC4336329 (PLoS ONE, 2015).
The campaign covered roughly 310,000 compounds. About 2,200 (0.71%) showed an effect of 50% or more. The effect is printed as a negative number. The list shows a part of the results.

target: human ether-à-go-go-related gene (hERG) potassium channel (human, UniProt Q12809); assay: primary screen, population patch clamp on CHO cells stably expressing hERG
Sequence (Q12809 whole entry, looked up): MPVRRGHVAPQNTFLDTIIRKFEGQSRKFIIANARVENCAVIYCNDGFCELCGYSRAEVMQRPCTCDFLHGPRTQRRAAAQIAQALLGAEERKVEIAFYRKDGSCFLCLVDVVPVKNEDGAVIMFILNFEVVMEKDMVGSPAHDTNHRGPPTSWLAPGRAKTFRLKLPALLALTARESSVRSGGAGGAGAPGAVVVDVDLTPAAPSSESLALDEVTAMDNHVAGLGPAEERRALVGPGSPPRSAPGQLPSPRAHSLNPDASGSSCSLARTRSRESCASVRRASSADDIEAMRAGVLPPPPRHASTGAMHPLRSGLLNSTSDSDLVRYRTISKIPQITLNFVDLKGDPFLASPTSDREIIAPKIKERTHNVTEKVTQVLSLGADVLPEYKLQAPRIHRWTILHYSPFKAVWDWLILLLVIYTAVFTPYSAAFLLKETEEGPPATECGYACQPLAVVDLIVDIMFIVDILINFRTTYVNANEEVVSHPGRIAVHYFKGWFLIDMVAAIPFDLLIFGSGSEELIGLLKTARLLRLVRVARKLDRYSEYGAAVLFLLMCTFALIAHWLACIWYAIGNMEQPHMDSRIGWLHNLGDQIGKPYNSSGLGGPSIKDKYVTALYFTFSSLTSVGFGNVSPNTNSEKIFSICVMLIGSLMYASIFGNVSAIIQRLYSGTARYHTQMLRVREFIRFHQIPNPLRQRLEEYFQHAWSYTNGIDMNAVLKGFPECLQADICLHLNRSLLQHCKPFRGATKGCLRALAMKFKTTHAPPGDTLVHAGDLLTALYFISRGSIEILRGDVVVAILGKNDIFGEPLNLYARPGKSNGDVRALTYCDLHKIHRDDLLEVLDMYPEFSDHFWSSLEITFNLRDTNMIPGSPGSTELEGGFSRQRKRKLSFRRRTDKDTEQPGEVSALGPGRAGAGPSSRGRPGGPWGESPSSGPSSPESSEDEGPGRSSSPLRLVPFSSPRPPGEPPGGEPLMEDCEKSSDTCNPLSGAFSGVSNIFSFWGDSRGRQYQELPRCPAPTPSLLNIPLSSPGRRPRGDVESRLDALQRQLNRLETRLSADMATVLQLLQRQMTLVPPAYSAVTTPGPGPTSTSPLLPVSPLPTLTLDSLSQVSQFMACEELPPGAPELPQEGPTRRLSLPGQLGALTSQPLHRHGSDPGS

Row | SMILES | hERG current change (%, negative = inhibition) at 1uM [%]
1 | CCOc1ccc(CNC(=O)CCCc2cn(C)c3ccccc23)cc1OC | 8.28
2 | CCOC(=O)Nc1ccc2c(c1)N(C(=O)CCN(CC)CC)c1ccccc1CC2 | -11.3
3 | CCn1cc(C(=O)O)c(=O)c2cc(F)c(N3CCN(C(=S)NC(=O)c4ccc(F)c(F)c4)CC3)cc21 | 24.3
4 | COc1ccc(NC(=O)CC2CCCC2)cc1OC | 11
5 | CN(C(=O)COC(=O)c1cc(-c2ccco2)nc2ccccc12)C1CCS(=O)(=O)C1 (centres unmarked) | 3.39
6 | Cc1cccc(NC(=O)CCC(=O)N/N=C/c2ccco2)c1 | 4.23
7 | CCCC(CCC)c1nc2ccncc2[nH]1.O=C(O)C(=O)O | 13.7
8 | FC(F)(F)c1cc(-c2ccco2)nc(NCc2cccs2)n1 | -3.14
9 | O=[N+]([O-])c1ccc(N2CCN(S(=O)(=O)c3ccccc3)CC2)cc1N1CCc2ccccc2C1 | 18.9
10 | COC(=O)c1sccc1NC(=O)C1CC1 | 7.58
11 | CC(=O)c1c(C)[nH]c(C(=O)Nc2ccc(Cl)c(S(=O)(=O)N3CCOCC3)c2)c1C | 11.6
12 | CCCCNC(=S)NNC(=O)c1cc(-c2cccnc2)nc2ccccc12 | -11.2
13 | Cc1cc(C)c(/C=N/NC(=O)c2nnn(-c3nonc3N)c2COc2ccc(F)cc2)c(C)c1 | 6.78
14 | Cc1ccccc1OCC(=O)N/N=C1\CC(=O)CC(C)(C)C1 | 15
15 | O=C(COC(=O)COc1ccccc1)NCCC1=CCCCC1 | 9.12
16 | CC1CCCN(S(=O)(=O)c2ccc(C(=O)Nc3ccccc3-c3nc4ccccc4[nH]3)cc2)C1 (centres unmarked) | 6.28
17 | O=C(O)c1ccccc1NN=C1CCCCC1 | 10.1
18 | Cc1ccc(N=C2NC(=O)CS2)cc1 | 1.04
19 | Cc1cc(Cl)cc(C)c1OCCCCCn1ccnc1 | 4.08
20 | CC(C)[C@H](NC(=O)N1CCn2c1nc1ccccc12)C(=O)NC1CC1 | 6.65
21 | CC12CC(NC(=O)N1CCc1ccccc1)c1ccccc1O2 (centres unmarked) | 4.26
22 | O=C(c1cc(-c2ccc(Cl)cc2Cl)on1)N1CCOCC1 | 6.71
23 | CCCCN(CC)CCCNC(=O)c1cn(CC)c2ccc(S(=O)(=O)N3CCc4ccccc4C3)cc2c1=O | -71.9

Row | SMILES | hERG current change (%, negative = inhibition) at 1uM [%]
24 | C/C(=N\NC(=O)c1ccccc1C)c1ccc(N2CCOCC2)cc1 | 11.8
25 | O=C(CC(CC(=O)c1ccc(Cl)cc1)c1ccccc1C(=O)O)c1ccc(Cl)cc1 | 8.37
26 | CCC(=O)c1ccc(OCC(O)CN2CC(C)OC(C)C2)cc1.O=C(O)C(=O)O (centres unmarked) | 14.3
27 | CN(C)c1ccc(C=NCCc2ccc(S(N)(=O)=O)cc2)cc1 | 3.1
28 | Cc1ccc(C(=O)Nc2ccc3c4c(cccc24)CC3)cc1[N+](=O)[O-] | 7.92
29 | Cc1c(C(=O)C(=O)N2c3ccccc3CC2C)c2ccccc2n1C (centres unmarked) | 5.77
30 | CC(C)(C)n1ncc2c(=O)n(CC(=O)N3CCCCC3)cnc21 | 7.6
31 | O=C(CSc1nc2ccccc2c(=O)n1-c1ccccc1)N1CCc2ccccc2C1 | 1.76
32 | O=C(NC1CCCCCCC1)C1CCN(S(=O)(=O)N2CCC3(CC2)OCCO3)CC1 | 1.53
33 | O=C(Nc1cccc(Cl)c1)Nc1cc(S(=O)(=O)N2CCCCC2)ccc1Cl | 14.8
34 | COc1ccc(Nc2nc3ccccc3n3cnnc23)cc1 | 8.24
35 | CN1CCc2c(sc(/N=C/c3ccco3)c2C(N)=O)C1 | 2.29
36 | CC1(C)N=C(c2ccc(Cl)cc2Cl)C(=O)N1 | 8.21
37 | CCn1nc(C)cc1C(=O)N1CCCC(N(C)CCc2ccc(OC)c(OC)c2)C1 (centres unmarked) | 5.26
38 | COCCCn1c(N)c(C(=O)NCc2ccco2)c2nc3ccccc3nc21 | 12.8
39 | C#CCOCCOCCOCCNc1nc(N2CCN(C(=O)Cn3cc(CCO)nn3)CC2)nc(N2CCN(C(=O)[C@H](C(C)C)n3cc(CCO)nn3)CC2)n1 | 12.1
40 | COc1ccc(C(=O)COC(=O)CCN2C(=O)[C@@H]3[C@H](C2=O)[C@@H]2C[C@H]3C(Br)C2Br)cc1 (some centres unmarked) | 13.6
41 | Cc1ccc(C(=O)N/N=C\c2ccc([N+](=O)[O-])s2)cn1 | 5.77
42 | CCCc1ncc(C[n+]2ccccc2C)c(N)n1.Cl.[Cl-] | 9.29
43 | CCOc1ccc(C(C)=O)cc1NC(=O)/C=C\C(=O)O | 10.6
44 | CCC(=O)c1ccc(OC)c(OC)c1 | 15.1
45 | COc1ccc(NC2CCCN(C(=O)c3cc4ncccn4n3)C2)cc1 (centres unmarked) | 16.1
46 | Cc1ccccc1-n1c(SC(C)C(=O)N2CCN(C)CC2)nc2ccccc2c1=O (centres unmarked) | 5.51

Row | SMILES | hERG current change (%, negative = inhibition) at 1uM [%]
47 | CCn1nc(C)cc1C(=O)Sc1ccc(C)cc1 | 3.53
48 | COc1cccc(-c2nc(SC)nc3sc(C(=O)NC(C)(C)C)c(N)c23)c1 | 8.15
49 | COc1ccc(S(=O)(=O)Nc2ccc(-n3cnnn3)cc2)cc1[N+](=O)[O-] | 13.2
50 | Cc1ccnc(SCC(=O)n2c3c(c4ccccc42)CC(C)CC3)n1 (centres unmarked) | 13.4
51 | Cc1ccc(S(=O)(=O)O)c(C)c1N1CCCC1=O | 4.44
52 | CC(Sc1nnc(N)s1)C(=O)Nc1ccc(N2CCOCC2)cc1 (centres unmarked) | 8.82
53 | C/C(=N\Nc1ccc(F)cc1)c1ccc(N2CCOCC2)c(F)c1 | 7.27
54 | Cc1ccc(S(=O)(=O)NC(=O)c2ccc(Br)o2)cc1 | 13.9
55 | CCCC(C(=O)NC(C)(C)CC)N(Cc1ccco1)C(=O)CNS(=O)(=O)c1ccccc1 (centres unmarked) | 3.45
56 | O=c1cccc2n1CC1CC2CN(c2ncnc3c2cnn3-c2ccc(Cl)cc2)C1 (centres unmarked) | -23.9
57 | NNC(=O)c1sc(-c2ccccc2)cc1N | 5.51
58 | CCOC(=O)CN(C)Cc1cn(C)nc1-c1ccc(Oc2ccccc2)cc1 | 6.3
59 | CC1CCCC(NC(=O)c2ccc(COc3ccccc3)o2)C1C (centres unmarked) | 8.21
60 | Cc1ccc(-n2nnc3c(=O)n(Cc4ccccc4C)cnc32)cc1 | 13.8
61 | COc1ccc(CN2CCN(C(=O)Cn3nc(C(=O)O)c4ccccc4c3=O)CC2)cc1F | -7.74
62 | COc1ccc(CN(C(=O)c2ccco2)c2ccc(Br)cc2)cc1OC | 9
63 | CC(Nc1nc(Nc2ccc(F)cc2)nc(SCC(N)=O)n1)c1ccccc1 (centres unmarked) | 14.3
64 | COCc1nnc(NC(=O)C2CC(=O)N(C3CCCC3)C2)s1 (centres unmarked) | 15
65 | CC(C)C(NC(=O)c1c(F)cccc1F)C(=O)N1CCN(c2ccccc2F)CC1 (centres unmarked) | 11.6
66 | O=C(c1cc(F)c(F)cc1Cl)N1CCOCC1 | 1.64
67 | O=C(/C=C/c1cc2c(cc1Br)OCO2)NCc1ccc(F)cc1 | 5.79
68 | O=C(CN1CCN(S(=O)(=O)c2ccc(Cl)cc2)CC1)NC1CC1 | 9.13
69 | NNc1ccc2nnc(C(F)(F)C(F)(F)C(F)(F)F)n2n1 | 10.7

Row | SMILES | hERG current change (%, negative = inhibition) at 1uM [%]
70 | CSc1ccc(Cn2nnc(C(=O)Nc3ccc(C)c(C)c3)c2N)cc1 | -1.56
71 | CSCCC(CO)NC(=O)OCc1ccccc1 (centres unmarked) | 8.46
72 | Cc1cc2nc(/N=C(\N)NC(=O)N3c4ccccc4Sc4ccccc43)nc(C)c2cc1C | -32.2
73 | N#Cc1cnn(Cc2ccccc2)c1N | 8.8
74 | CCCCN1C(=O)NC2NC(=O)NC21 (centres unmarked) | 3.06
75 | CCCCN(C(=O)c1ccco1)c1nnc(-c2cc(OC)c(OC)c(OC)c2)s1 | -1.23
76 | CC(=O)c1ccccc1OCC(O)CN1CCN(c2ccccn2)CC1.Cl (centres unmarked) | -9.92
77 | COc1ccccc1NC(=O)c1ccc(NC(=O)CSc2nnnn2C)cc1 | 9.7
78 | O=C(Nc1nc(-c2ccc(-c3ccccc3)cc2)cs1)c1cnccn1 | 3.61
79 | CCCC(=O)NCCc1cc(OC)c(OC)cc1Br | 16.1
80 | CCCC(C(=O)NC(C)(C)C)N(CCN1CCOCC1)C(=O)CNS(=O)(=O)c1ccccc1 (centres unmarked) | 13.8
81 | O=C(CSc1ccc2nnc(-c3cccnc3)n2n1)Nc1ccc(F)cc1F | -5.02
82 | CC(C)c1cc(Br)ccc1OCCCN1C(=O)NC(C)(C)C1=O | 5.49
83 | CCOC(=O)N1CCN(C(=S)NC(C)(C)C)CC1 | -0.972
84 | CN(C)C(=S)Nc1ccc2c(c1)OCCO2 | 9.5
85 | Cc1ccc(N=C2NC(=O)/C(=C\c3ccc(C)s3)S2)cc1 | 21
86 | O=C(O)c1cccc(NC(=S)NC(NC(=O)c2ccco2)C(Cl)(Cl)Cl)c1 (centres unmarked) | 7.5
87 | Cc1ccc(SCc2[nH]nc3c2C(c2ccc(C)o2)C(C#N)=C(N)O3)cc1 (centres unmarked) | 12.8
88 | COc1cc(OC)cc(C(=O)NCC(=O)OC2CCCCC2=O)c1 (centres unmarked) | -1.67
89 | C/C(=N\NC(=O)c1cccc(Br)c1)c1ccc(Br)cc1 | 15.7
